Source: the supplement of paper PMC3334620
In all, about 33,000 sequences were measured (“E-score (-0.5 to 0.5)”: median about -0.041, highest 2% from about 0.37 on). The list shows a part of the results.

What follows are sequences tested against T1, Ecm22 (UniProt Q05958) (assay: PBM E-score (8-mer binding enrichment) (E-score (-0.5 to 0.5)); higher = stronger / more preferred TF binding; most listed sequences are background and not binding sites). Conditions: protein concentration: 200 nM; construct: GST-full length.
T1 sequence: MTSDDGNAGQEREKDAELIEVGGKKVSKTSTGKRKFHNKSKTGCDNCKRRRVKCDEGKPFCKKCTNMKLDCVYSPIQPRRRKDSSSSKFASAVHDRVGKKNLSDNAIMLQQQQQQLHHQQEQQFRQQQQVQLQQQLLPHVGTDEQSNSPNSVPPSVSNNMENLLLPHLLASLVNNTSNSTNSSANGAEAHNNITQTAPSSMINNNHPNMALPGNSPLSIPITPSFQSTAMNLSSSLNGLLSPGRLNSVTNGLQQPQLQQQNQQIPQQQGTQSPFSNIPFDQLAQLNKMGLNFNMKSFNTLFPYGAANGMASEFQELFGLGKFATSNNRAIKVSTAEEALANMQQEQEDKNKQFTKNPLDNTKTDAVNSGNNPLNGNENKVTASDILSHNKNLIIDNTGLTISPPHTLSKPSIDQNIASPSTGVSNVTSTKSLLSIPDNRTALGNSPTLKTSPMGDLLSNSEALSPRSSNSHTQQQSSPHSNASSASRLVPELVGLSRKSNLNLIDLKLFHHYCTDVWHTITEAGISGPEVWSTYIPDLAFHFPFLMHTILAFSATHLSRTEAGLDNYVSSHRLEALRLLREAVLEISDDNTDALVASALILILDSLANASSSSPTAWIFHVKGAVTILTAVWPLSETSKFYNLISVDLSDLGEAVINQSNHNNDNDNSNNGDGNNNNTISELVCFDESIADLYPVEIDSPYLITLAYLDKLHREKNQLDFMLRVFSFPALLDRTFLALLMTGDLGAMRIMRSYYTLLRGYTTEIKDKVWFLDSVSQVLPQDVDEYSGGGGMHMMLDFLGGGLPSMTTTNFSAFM
Procedure: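 Universal 'all 10-mer' protein binding microarrays (Agilent AMADID 015681) probed with GST-tagged S. cerevisiae TFs (full-length or DBD) made by in vitro transcription/translation (PURExpress), about 100-200 nM. Bound TF was detected with fluorescent anti-GST. Each ungapped 8-mer (which stands for itself and its reverse complement) is scored by the PBM enrichment score (E-score), a modified Wilcoxon-Mann-Whitney statistic from -0.5 to +0.5, computed with the Universal PBM Analysis Suite. Scale: above 0.35 generally sequence-specific binding.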

Row | Sequence | PBM E-score
1 | CCCCTTAA | -0.398
2 | AACGGGAG | 0.21
3 | TCACGCGA | 0.227
4 | GCACGCAC | -0.0706
5 | GAGCTTTA | 0.0312
6 | GCGGGACC | -0.0823
7 | AAGCTGCT | -0.27
8 | TAGACGGA | -0.0672
9 | ACACGTAG | -0.295
10 | ACCTCACT | -0.094
11 | CCTCGAGA | -0.0721
12 | CCCGACGA | 0.112
13 | CCTAGTAG | -0.141
14 | ATTGATAA | -0.117
15 | CCTGGTAA | -0.0304
16 | GTCCCGGA | 0.00987
17 | ACCGAATA | 0.18
18 | CAAGACGG | -0.286
19 | CAGATGGG | -0.356
20 | ACCATCGT | 0.244
21 | AGCACAAA | -0.0863
22 | GAGTTTTA | 0.0469
23 | CACCATGC | -0.195
24 | GCGGAATA | -0.0934
25 | GCATGAAC | 0.0165

Row | Sequence | PBM E-score
26 | CGGCGTTC | 0.117
27 | CATAATCG | 0.183
28 | ATTAAGTC | -0.121
29 | AAGAGGTG | -0.0239
30 | CTACCGCA | -0.257
31 | ACTCTAAA | 0.0104
32 | CTGAAGTC | -0.0259
33 | AGCGCGCT | 0.231
34 | GCTTGCCA | -0.0782
35 | TCGGCGAA | 0.00046
36 | AGGTATTA | -0.0627
37 | ACTACTAG | -0.0821
38 | AGAAGTCC | -0.00647
39 | CTGAACGC | 0.023
40 | CAATACGC | -0.0345
41 | CCGGCCGG | 0.101
42 | AGGTGAGG | -0.0427
43 | GCCCTGCC | -0.0093
44 | CCCGGCAA | -0.0692
45 | GCATCACC | -0.295
46 | TTCCTAAA | -0.0909
47 | GGTGACAA | -0.0974
48 | ACAATCGA | -0.0404
49 | ACGCGCGG | 0.0451
50 | CTCATAGA | -0.0587

Row | Sequence | PBM E-score
51 | ACAAAGTG | -0.033
52 | TATACTGA | 0.182
53 | GCCATCGC | -0.0403
54 | ATGAGGAC | -0.161
55 | AGATAATG | 0.14
56 | CGTTTGCC | 0.285
57 | CACGCCGG | -0.0956
58 | TGAAAAAA | -0.0832
59 | ATTATTAA | -0.101
60 | TGTGATAA | -0.0313
61 | AAGTGCAA | -0.0854
62 | CACATGGA | -0.241
63 | TGATTCAA | -0.0999
64 | ATGAATAC | 0.21
65 | TCGCCCAA | 0.0204
66 | CAACCGGG | -0.144
67 | GAATAAAA | 0.0524
68 | CGTCGGTA | 0.153
69 | AGTCACCC | -0.179
70 | GTTGTAAA | -0.0257
71 | ATATGATG | -0.146
72 | TCCTAAGA | -0.185
73 | AAACATGG | -0.11
74 | ATGCACAA | -0.108
75 | AGGGCAGC | -0.249

Row | Sequence | PBM E-score
76 | ACCAGCGC | -0.0753
77 | GCTTGATA | -0.0303
78 | AACGGGAA | 0.259
79 | GCATACAA | 0.0278
80 | GCATCCCC | -0.0293
81 | ACGTGTAG | -0.0139
82 | ACCACGTG | -0.00409
83 | ACGGCGAG | 0.214
84 | GGACTCTA | -0.287
85 | ATATCGGG | -0.0462
86 | TCAAATGA | -0.249
87 | AATGAAGT | -0.0367
88 | CGGAGGGA | -0.0593
89 | GAGAAACA | -0.0175
90 | GAGTGTGA | 0.185
91 | GCAGCGGC | -0.0914
92 | AAAGCCGC | 0.0696
93 | ATCCCTAA | -0.113
94 | CGGCCAAC | -0.00659
95 | CACACGTA | 0.0253
96 | CCGTTGCG | 0.304
97 | ACGGTTAT | 0.337
98 | CAATGAGA | -0.211
99 | ACCGTCCT | -0.273
100 | AGGTAGTG | -0.0796

Row | Sequence | PBM E-score
101 | AACGATTG | 0.384
102 | AAATTGGA | -0.097
103 | ACCAGGTA | -0.0162
104 | CCTTGGAG | -0.1
105 | ATGTCGGA | 0.0752
106 | GAATTACA | 0.0829
107 | GCGGGAAA | 0.162
108 | CTCTCGCC | -0.0362
109 | GGCTGAAA | -0.0667
110 | AGATCGAA | -0.0769
111 | CGTGACCC | 0.0729
112 | AGTGGCCG | -0.179
113 | CCCATCGC | -0.0258
114 | GTTTCTTA | 0.0254
115 | ATTCATCC | 0.029
116 | AAAAGGTT | -0.08
117 | AGATAGTC | -0.0644
118 | CCCTGAGG | -0.24
119 | CCATAATA | 0.0684
120 | CAGTGATC | -0.0339
121 | TCTAGAGA | -0.292
122 | CGTATTAG | 0.344
123 | GATTAGGA | -0.246
124 | CTCAGGAA | -0.256
125 | AGTTTAAG | -0.127

Row | Sequence | PBM E-score
126 | TTAAGCAA | -0.0205
127 | CTGAGACA | -0.149
128 | ATCCAGTG | -0.169
129 | CCGCGTTA | 0.115
130 | CTCCTGGA | -0.187
131 | GCGCTCGA | 0.0495
132 | TAATTCTA | 0.0717
133 | ACGTCGGG | 0.15
134 | GCCGGACA | 0.0133
135 | GACTGTGA | -0.27
136 | AGCCCATA | -0.248
137 | AGCTCTTA | -0.139
138 | GGCCGCCA | -0.341
139 | CCATCTCC | 0.0176
140 | CTAGATGC | -0.068
141 | AGGATTCC | -0.203
142 | AGGAACCT | -0.145
143 | ATGTTATA | 0.0753
144 | ACTCGCTC | 0.354
145 | ATAGGCAA | -0.116
146 | CGTCGGAA | 0.203
147 | AGGCTTAA | -0.168
148 | AAATGAAA | 0.176
149 | CGACTCGA | 0.0317
150 | ATCTCCGC | -0.0922

Row | Sequence | PBM E-score
151 | GGTATGTA | -0.183
152 | CAAGAACA | -0.0215
153 | CCACTTGC | -0.205
154 | ACCCATCT | -0.0835
155 | CTCCGAAA | -0.0756
156 | CGCAAAGC | 0.202
157 | ACGAGGGA | 0.41
158 | GAGATGGA | -0.0984
159 | CTGTCTCA | -0.242
160 | AGGGCCAC | -0.167
161 | AGTGCGGA | 0.0323
162 | CCGGCTCC | 0.00262
163 | CAATATCC | -0.0923
164 | GTTCGACA | 0.0668
165 | AGCTTTGG | -0.0792
166 | AAACAGAT | 0.0559
167 | ACGTAATG | 0.0934
168 | ATCCCTGA | -0.129
169 | AGGGTCCC | -0.283
170 | CCGAAAAG | 0.147
171 | GCGAAGCC | 0.0234
172 | GTGCCAAC | -0.0419
